Reference: the supplement of paper PMC9446081
Hit rate of the full screen: of about 39,000 compounds, about 220 (0.56%) showed activity. The list shows a part of the results.

System: Escherichia coli K-12 BW25113
Assay: relative growth (OD600 normalised to plate interquartile mean) (fraction); higher = less growth inhibition, active = 0.2 or less
Settings: 50 µM; LB; incubation time: overnight (16-24 h)
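Further: static incubation at 37 °C against the wild-type strain, values averaged over two biological replicates.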

| SMILES | relative growth |
| --- | --- |
| C[C@@H]1CCCCO[C@H](CN(C)S(=O)(=O)c2ccccc2)[C@@H](C)CN([C@H](C)CO)C(=O)c2cc(NC(=O)Nc3ccccc3)ccc2O1 | inactive: 1.03 |
| CC(=O)N1CCN(c2ccnc3c2c(=O)n(CC(=O)NC(C)(C)C)c(=O)n3C)CC1 | inactive: 0.979 |
| CC(=O)n1nc(-c2cccnc2)nc1N | inactive: 1.02 |
| C[C@H]1CN([C@@H](C)CO)C(=O)c2c(c3ccccc3n2C)-c2ccccc2CO[C@H]1CN(C)Cc1cccc(F)c1 | inactive: 0.992 |
| Cc1noc(C)c1NC(=O)N(C)C[C@@H]1OCCCC[C@@H](C)Oc2ccc(NC(=O)Cc3ccccc3)cc2C(=O)N([C@@H](C)CO)C[C@H]1C | inactive: 0.958 |
| C[C@H]1CN([C@@H](C)CO)C(=O)c2cccc(NC(=O)c3ccc(-c4nccs4)cc3)c2O[C@H]1CN(C)Cc1ccc(C(=O)O)cc1 | inactive: 1 |
| Cc1ccc(S(=O)(=O)Nc2ccc3c(c2)C(=O)N([C@H](C)CO)C[C@H](C)[C@H](CN(C)S(=O)(=O)c2ccccc2)O3)cc1 | inactive: 1 |
| C[C@H](CO)N1C[C@H](C)[C@H](CN(C)S(=O)(=O)c2ccc(Cl)cc2)OCCCC[C@H](C)Oc2ccc(NS(=O)(=O)c3ccc(F)cc3)cc2C1=O | inactive: 1.02 |
| C[C@@H]1CN([C@H](C)CO)S(=O)(=O)c2ccc(-c3cncnc3)cc2O[C@H]1CN(C)C(=O)Cc1cccnc1 | inactive: 0.98 |
| CC(=O)O[C@@H]1C[C@@H]2CC[C@@]1(C)C2(C)C | inactive: 0.977 |
| CN(C)CCCNC(=O)C[C@H]1CC[C@H]2[C@@H](COC[C@H](O)CN2C(=O)Nc2cc(Cl)cc(Cl)c2)O1 | inactive: 0.995 |
| COc1ccc(NC(=O)N(C)C[C@@H]2Oc3ccc(NS(=O)(=O)c4cn(C)cn4)cc3CC(=O)N([C@@H](C)CO)C[C@@H]2C)cc1 | inactive: 1.01 |
| COc1ccc(CN(C)C[C@H]2OCCCC[C@H](C)Oc3ccc(NS(=O)(=O)c4ccc(F)cc4)cc3C(=O)N([C@H](C)CO)C[C@@H]2C)cc1 | inactive: 1.01 |
| Cc1ccc(S(=O)(=O)N2C[C@H](O)COC[C@@H]3O[C@H](CC(=O)NCc4ccc(Cl)c(Cl)c4)CC[C@H]32)cc1 | inactive: 0.966 |
| C[C@@H]1CN([C@H](C)CO)C(=O)c2cc(NC(=O)NC3CCCCC3)ccc2O[C@@H]1CN(C)Cc1ccc(Oc2ccccc2)cc1 | inactive: 1.03 |
| CN(C)C(=O)C[C@@H]1C=C[C@@H](NC(=O)C2CCOCC2)[C@@H](CO)O1 | inactive: 1.02 |
| C[C@@H]1CN([C@H](C)CO)C(=O)CCCn2cc(nn2)CO[C@H]1CN(C)C(=O)Nc1cccc(Oc2ccccn2)c1 | inactive: 0.992 |
| C[C@@H]1CN([C@@H](C)CO)C(=O)c2cc(N(C)C)ccc2O[C@@H](C)CCCCO[C@@H]1CN(C)S(C)(=O)=O | inactive: 1.01 |
| C[C@H](CO)N1C[C@H](C)[C@H](CN(C)C(=O)Nc2ccc(C(F)(F)F)cc2)Oc2ccc(NS(=O)(=O)c3ccc(Cl)cc3)cc2C1=O | inactive: 1.01 |

| SMILES | relative growth |
| --- | --- |
| COc1ccc(NC(=O)Nc2ccc3c(c2)C(=O)N([C@@H](C)CO)C[C@@H](C)[C@@H](CN(C)Cc2ccc(C(F)(F)F)cc2)OCCCC[C@@H](C)O3)cc1 | inactive: 0.971 |
| COc1ccc(S(=O)(=O)N2CCCN(S(=O)(=O)c3ccc(OC)c(OC)c3)CC2)cc1OC | inactive: 0.973 |
| COc1ccc(S(=O)(=O)Nc2ccc3c(c2)C(=O)N([C@H](C)CO)C[C@@H](C)[C@H](CN(C)C(=O)Nc2ccccc2)OCCCC[C@H](C)O3)cc1 | inactive: 1.03 |
| C[C@H]1CN([C@@H](C)CO)C(=O)c2cc(NS(=O)(=O)c3ccccc3)ccc2O[C@@H]1CN(C)CC1CC1 | inactive: 0.98 |
| C[C@@H]1CCCCO[C@H](CN(C)C(=O)Cc2ccccc2)[C@H](C)CN([C@@H](C)CO)C(=O)c2cc(NC(=O)Nc3ccc(C(F)(F)F)cc3)ccc2O1 | inactive: 1.03 |
| C[C@@H]1CN([C@@H](C)CO)S(=O)(=O)c2ccc(-c3ccncc3)cc2O[C@H]1CN(C)C(=O)c1cccc(F)c1 | inactive: 1.03 |
| C[C@H](CO)N1C[C@H](C)[C@@H](CN(C)Cc2ccc3c(c2)OCO3)Oc2ccc(NC(=O)Nc3cccc4ccccc34)cc2C1=O | inactive: 1.03 |
| COc1ccc(cc1)S(=O)(=O)N1C[C@]2(C1)CN([C@H](CO)c1c2c2ccc(cc2n1C)OC)C(=O)CN(C)C | inactive: 0.987 |
| C[C@@H]1CCCCO[C@H](CN(C)CC2CC2)[C@H](C)CN([C@@H](C)CO)C(=O)c2cc(NC(=O)CCC(F)(F)F)ccc2O1 | inactive: 1.02 |
| C[C@@H]1CN([C@@H](C)CO)C(=O)c2cc(NS(=O)(=O)c3ccc(F)cc3)ccc2O[C@@H](C)CCCCO[C@@H]1CN(C)C(=O)Nc1ccc(C(F)(F)F)cc1 | inactive: 0.983 |
| COCC(=O)N(C)C[C@H]1Oc2cc(C#C[C@H](C)O)ccc2S(=O)(=O)N([C@H](C)CO)C[C@@H]1C | inactive: 0.988 |
| C[C@@H]1CN([C@@H](C)CO)C(=O)c2c(c3ccccc3n2C)-c2ccccc2CO[C@H]1CN(C)C(=O)Nc1ccccc1 | inactive: 1.03 |
| C[C@H](CO)N1C[C@H](C)[C@@H](CN(C)CC2CC2)Oc2c(NS(=O)(=O)c3ccc(F)cc3)cccc2C1=O | inactive: 0.984 |
| C[C@@H]1CCCCO[C@H](CN(C)CC2CC2)[C@H](C)CN([C@@H](C)CO)C(=O)c2cc(NS(=O)(=O)c3ccc(Cl)cc3)ccc2O1 | inactive: 0.963 |
| CO[C@@H]1CN(C)C(=O)c2ccc(NS(C)(=O)=O)cc2OC[C@H](C)N(C(=O)C2CCCCC2)C[C@@H]1C | inactive: 1.02 |
| COc1ccc(S(=O)(=O)N(C)C[C@@H]2OCCCC[C@@H](C)Oc3ccc(NC(=O)NC4CCCCC4)cc3C(=O)N([C@H](C)CO)C[C@H]2C)cc1 | inactive: 1.04 |
| COc1ccc(S(=O)(=O)Nc2ccc3c(c2)C(=O)N([C@H](C)CO)C[C@@H](C)[C@H](CN(C)C(=O)Nc2ccc4c(c2)OCO4)OCCCC[C@H](C)O3)cc1 | inactive: 1.01 |
| CC(C)CCCC(C)C1CCC2C3CCC4CC(O)CCC4(C)C3CCC12C (stereo not drawn) [5alpha-CHOLESTANOL] | inactive: 1.06 |
| C[C@@H](OC[C@@]1(c2ccccc2)CC[C@]2(CCC(=O)N2)CN1)c1cc(C(F)(F)F)cc(C(F)(F)F)c1 | inactive: 0.998 |

| SMILES | relative growth |
| --- | --- |
| CN(C)C(=O)C[C@H]1CC[C@@H]2[C@@H](COc3ccc(NS(=O)(=O)c4cccc(F)c4)cc3C(=O)N2C)O1 | inactive: 0.946 |
| CC(C)NC(=O)Nc1ccc2c(c1)CC(=O)N([C@@H](C)CO)C[C@H](C)[C@@H](CN(C)C(=O)Nc1ccc3c(c1)OCO3)O2 | inactive: 0.979 |
| O=S(=O)(NCC[C@H]1CC[C@@H](NS(=O)(=O)c2ccccc2Cl)[C@@H](CO)O1)c1ccc(Cl)cc1 | inactive: 1.02 |
| CO[C@@H]1CN(C)C(=O)c2ccc(NC(=O)Nc3cccc(Cl)c3)cc2OC[C@@H](C)N(C(=O)Nc2c(C)noc2C)C[C@H]1C | inactive: 0.998 |
| COc1ccc(NC(=O)N(C)C[C@H]2OCCCC[C@@H](C)Oc3ccc(NC(=O)C4CCCCC4)cc3C(=O)N([C@H](C)CO)C[C@@H]2C)cc1 | inactive: 0.986 |
| COc1ccc(S(=O)(=O)N(C)C[C@H]2OCCCC[C@@H](C)Oc3ccc(NC(=O)CCC(F)(F)F)cc3C(=O)N([C@@H](C)CO)C[C@H]2C)cc1 | inactive: 1.01 |
| C[C@@H]1CCCCO[C@@H](CN(C)S(=O)(=O)c2ccc(Cl)cc2)[C@H](C)CN([C@@H](C)CO)C(=O)c2cc(NC(=O)Nc3ccc4c(c3)OCO4)ccc2O1 | inactive: 1.02 |
| O=S(=O)(NCC[C@@H]1CC[C@@H](NS(=O)(=O)c2ccccc2Cl)[C@H](CO)O1)c1ccc(F)cc1 | inactive: 1.01 |
| C[C@@H]1CCCCO[C@@H](CN(C)C(=O)Cc2ccccc2)[C@H](C)CN([C@@H](C)CO)C(=O)c2cc(NC(=O)C3CCCCC3)ccc2O1 | inactive: 1 |
| COc1ccc(S(=O)(=O)Nc2ccc3c(c2)C(=O)N([C@@H](C)CO)C[C@@H](C)[C@H](CN(C)C(=O)Nc2ccc4c(c2)OCO4)OCCCC[C@@H](C)O3)cc1 | inactive: 0.982 |
| C[C@@H]1CN([C@@H](C)CO)C(=O)c2cc(NC(=O)Nc3ccccc3)ccc2O[C@@H](C)CCCCO[C@H]1CN(C)S(=O)(=O)c1ccccc1 | inactive: 1.01 |
| CC(C)CC#Cc1ccc2c(c1)O[C@@H](CN(C)C(=O)Cc1ccccn1)[C@H](C)CN([C@H](C)CO)S2(=O)=O | inactive: 0.955 |
| O=C1CCCCCN1 | inactive: 0.964 |
| C[C@@H]1CN([C@H](C)CO)C(=O)c2cc(NC(=O)c3ccncc3)ccc2O[C@@H](C)CCCCO[C@H]1CN(C)S(=O)(=O)c1ccc(Cl)cc1 | inactive: 1.01 |
| COc1ccc(CNC(=O)C[C@H]2C[C@H]3c4cc(NS(=O)(=O)c5ccc(F)cc5)ccc4O[C@H]3[C@H](CO)O2)cc1 | inactive: 1.01 |
| C[C@@H]1CN([C@H](C)CO)C(=O)Cc2cc(NS(C)(=O)=O)ccc2O[C@@H]1CN(C)C(=O)NC1CCCCC1 | inactive: 1.01 |
| C[C@H]1CN([C@@H](C)CO)C(=O)c2cc(NC(=O)Cn3cnnn3)ccc2O[C@@H]1CN(C)Cc1ccc(C(=O)Nc2ccccc2N)cc1 | inactive: 1.01 |
| COc1ccccc1S(=O)(=O)N(C)C[C@H]1Oc2ncc(Br)cc2C(=O)N([C@H](C)CO)C[C@H]1C | inactive: 0.975 |
| C[C@@H]1CN([C@@H](C)CO)C(=O)Cc2cc(NC(=O)NC3CCCCC3)ccc2O[C@H]1CN(C)C(=O)Nc1cccc2ccccc12 | inactive: 1.01 |
